# Experimental data published in PubChem BioAssay AID686979 (National Center for Advancing Translational Sciences (NCATS), 2013).
# Screen size: about 420,000 compounds; about 50,000 (12%) were called active. Inconclusive means that the source gave no clear call. Such entries were picked first, then a sample of the others. Calls come from the whole dose curve; as a rule, active = well fitted inhibition curve with a large enough effect; inconclusive = small, poorly fitted or top-dose-only effect; inactive = flat fitted curve, though single readings scatter. Potencies of inconclusive entries are left out as doubtful fits.
# Assay: qHTS for Inhibitors of human tyrosyl-DNA phosphodiesterase 1 (TDP1): qHTS in cells in presence of CPT; note: nearly all actives have a fitted effect of over 55% in size
# Settings: chicken DT40 Tdp1-/-;hTDP1 cells + 20 nM CPT, ATP luminescence, 48 h; activity change, negative = growth inhibition: at 46.2 µM (top of the series)
# Method in brief: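 Cell growth measured by CellTiter-Glo luminescence after a minimum 48 h, 37 C compound exposure with 20 nM CPT in Tdp1-knockout DT40 cells stably expressing hTDP1, seeded 400/well; qHTS titration format.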
# % is set by controls: 0 for no effect and ±100 for the full control effect; potency is the fitted concentration of half-maximal effect; tags give direction and shape of the fitted curve.
Structure (SMILES),Potency,"activity change, negative = growth inhibition"
Cc1cccc(NS(=O)(=O)c2ccc3nc(-c4ccccc4)[nH]c3c2)c1C,active: 16.4 µM,–
COC(=O)[C@@]12CCCN1[C@H](c1ccc(SC3CCCCC3)cc1)[C@H]1C(=O)N(C)C(=O)[C@H]12,"inconclusive [inhibitor, single point]",–
O=C(Cc1c(F)cccc1Cl)Nc1ccc(S(=O)(=O)NCC2CCCO2)cc1 (stereo unspecified),inactive,–
CCOC(=O)c1scc(-c2ccc(C)cc2)c1S(=O)(=O)Nc1ccc(OC)c(Cl)c1,active: 16.4 µM,–
C/C(COc1ccccc1)=N\NC(=O)c1nnn(-c2nonc2N)c1CSc1ccccc1,inactive,–
COc1ccc(C(=O)COC(=O)[C@H](C)NS(=O)(=O)c2ccc(NC(C)=O)cc2)cc1OC,inactive,–
CCOCCCNc1nc2cc(OC)c(OC)cc2c2nc(-c3ccccc3)nn12,active: 10.3 µM,–
CCOC(=O)N1CCN(C(=O)CN(C)S(=O)(=O)c2ccc(OC)c(OC)c2)CC1,"inconclusive [inhibitor, single point]",–
COc1ccc(C2C(C(=O)Nc3ccccc3)=C(C)Nc3nc(-c4ccccc4Cl)nn32)cc1OC (stereo unspecified),"inconclusive [inhibitor, single point]",–
CC1CCCC(C)N1/N=C/c1ccc(N(C)C)cc1 (stereo unspecified),inactive,–
COC(=O)C[C@H]1C[C@@H]2c3cc(N(C)C)ccc3O[C@@H]2[C@H](CO)O1,inactive,–
O=C(Nc1ccc2nc(SCCOc3ccccc3)sc2c1)c1ccc2c(c1)OCO2,"inconclusive [inhibitor, partial curve, poor fit]",–
O=C(Nc1ccccc1F)c1ccccc1-c1ccc(C(F)(F)F)cc1,–,inconclusive: -35.5% [inhibitor]
Clc1ccccc1Nc1ncnc2c1nc1n2CCCCC1,active: 8.2 µM,–
CC1Cc2cc(S(=O)(=O)N3CCN(C)CC3)ccc2N1C(=O)C1CC1 (stereo unspecified),inactive,–
OCC1(Cc2ccc(Cl)cc2)CCN(CC2CC=CCC2)CC1 (stereo unspecified),active: 29.1 µM,–
O=C(CSc1cn(CC(=O)N2CCCC2)c2ccccc12)Nc1ccccc1C(F)(F)F,"inconclusive [inhibitor, single point]",–
Oc1ccc(Br)cc1-c1cc(-c2ccccc2Cl)[nH]n1,"inconclusive [inhibitor, single point]",–
CCCNC(=O)C1(C)CCCN(CCC(=O)c2ccccc2)C1 (stereo unspecified),active: 5.8 µM,–
COc1cc2[nH]c(=O)n(CCCCCC(=O)N3CCN(c4ccc(Cl)cc4)CC3)c(=O)c2cc1OC,"inconclusive [inhibitor, single point]",–
Cc1occc1C(=O)Nc1ccc(S(N)(=O)=O)cc1,active: 23.1 µM,–
